We go through 53 compounds from ChEMBL document CHEMBL4888484, “Replenishing the malaria drug discovery pipeline: Screening and hit evaluation of the MMV Hit Generation Library 1 (HGL1) against asexual blood stage Plasmodium falciparum ,using a nano luciferase reporter read-out” (2022).

Where “and” joins values, the source holds several entries; their conditions need not be identical. Equal values may be shown once. Out of some 150,000 compounds screened, about 540 (0.36%) showed an effect of 50% or more. This is one part of the list.

The experiment relates to Plasmodium falciparum. Description: Primary screen in NF54 nanoGlo assay, in single point, at 2uM, 72h; a lower Z score goes with more inhibition. The class given is functional, Erythrocyte. The note with it: timepoint 72 hour.

A word on the % Inhibition: it is the drop in the measured response relative to a control, in per cent. Regarding `COc1ccc(-c2nn(-c3ccccc3F)cc2CN(C)Cc2nccs2)cc1`, the “% Inhibition” value was -18% and the Z score was 1.96.
The corresponding values for `FC(F)(F)c1cccc(N2CCN(c3c4c(nc5ncnn35)CCCC4)CC2)c1` are -2% and 0.24.
The like results for `C[C@H]1CCCN(Cc2ccccc2-c2nc(CC(=O)O)cs2)C1` were, in that order, -11% and 1.43.
The corresponding values for `CCC(=O)N[C@@H]1c2ccccc2C2(CCN(C(=O)Cc3ccsc3)CC2)[C@H]1OCCOC` are -13% and 2.02.
Regarding `CCC[C@H]1C(=O)NCCN1C(=O)c1cn(CCOC)nn1`, the “% Inhibition” value is reported as -12% and the Z score is on record as 1.64.
The corresponding values for `O=C(Nc1cc(NS(=O)(=O)c2cccc(F)c2)ccc1F)C1CCCCC1` are 0% and 0.01.
The corresponding values for `O=C(Nc1ccc2c(c1)OCO2)c1ccc(S(=O)(=O)N2CCCCCC2)cc1` are -15% and 2.02.
The like results for `CC(C)Nc1ccc(-c2ccnn2C(C)C)nn1` were, in that order, -10% and 1.85.
Consider `O=C(NCC1(CO)CC1)C1CC=CCC1c1nc2ccccc2s1` (stereo unspecified), for which the “% Inhibition” value is on record as -12% and the Z score turned out to be 1.22.
The corresponding values for `O=C(NCc1cc(C2CC2)on1)N1CCN(C2CCCCC2)CC1` are -19% and 1.7.
The corresponding values for `O=C(c1sccc1OC(F)F)N1CCOC2CCCCC21` (stereo unspecified) are 6% and -0.77.
The like results for `CC(C)(C)OC(=O)N1CCC[C@H]1C(=O)N1CCc2sccc2C1` were, in that order, -6% and 0.85.
`CCN(CC)c1ccc(NC(=O)N[C@H]2CC(=O)N(c3ccc4c(c3)OCCO4)C2)c(C)c1`: the “% Inhibition” value is 11% and the Z score is given as -1.47.
The corresponding values for `COc1cc(CN(C(=O)c2cccc(N3CCCC3=O)c2)[C@H]2CCCCNC2=O)ccc1OCCc1ccccn1` are 29% and -3.64.
The like results for `CC(=O)Nc1ccc(OC(=O)c2cccc(Oc3ccccc3)c2)cc1` were, in that order, 5% and -0.98.
The corresponding values for `CS(=O)(=O)Nc1ccc(-c2cccc3[nH]ccc23)cn1` are -11% and 1.08.
For the compound `O=C(NCCN1CCOCC1)c1cnc2c(Cl)cccc2c1O`, the “% Inhibition” value is recorded as -10% and the Z score is recorded as 1.33.
For the compound `N#Cc1ccc(C(=O)N2CCC3(CC2)[C@H](O)C[C@@H]3OCCO)cn1`, the “% Inhibition” value amounted to 2% and the Z score was -0.32.
The like results for `CCC(CC#N)NCC1CCCCN(C(=O)OC(C)(C)C)C1` (stereo unspecified) were, in that order, -5% and 0.52.
For the compound `CCCCn1cc[n+](-c2nc3ccccc3nc2[N-]S(=O)(=O)c2ccc(Cl)cc2)c1`, the “% Inhibition” value is reported as -5%. Also, where the note is “2 µM”, the Z score was 0.61 and 0.76.
Regarding `O=c1c2ccccc2ncn1C[C@H]1CC[C@H](C(=O)NCCc2ccccn2)CC1`, the “% Inhibition” value was -11% and the Z score worked out at 1.36.
The like results for `CC(=O)N1CC[C@H](Oc2ccccc2-c2nc(C3CC3)no2)C1` were, in that order, -12% and 2.3.
The like results for `CC(C)c1cc(C(=O)OCCNc2cccnn2)n(C)n1` were, in that order, -5% and 0.38.
As to `COCCN1C[C@]2(CCCN(C(=O)c3cc(C)nc(C)n3)C2)CCC1=O`, the “% Inhibition” value is recorded as -3% and the Z score is reported as 0.52.
The corresponding values for `CC(C)OCCCNC(=O)CC1CCCC1` are -10% and 1.15.
Regarding `O=C(NC1CCCc2ccccc21)C1CC(=O)N(c2ccc(F)cc2)C1` (stereo unspecified), the “% Inhibition” value is given as -8% and the Z score is on record as 1.5.
Take `O=C(Nc1cccnc1N1CCN(C(=O)c2cc(F)ccc2Cl)CC1)c1ccc2c(c1)OCO2`: the “% Inhibition” value was -3% and the Z score is on record as 0.39.
The like results for `CN(C)[C@@H]1C[C@@H](CO)N(C(=O)NCCc2ccc(F)cc2)C1` were, in that order, -11% and 1.53.
The like results for `COc1cccc(-c2cc(C(=O)Nc3ccc(N4CCC(OC)CC4)cc3)n(C)n2)c1` were, in that order, -18% and 2.32.
The corresponding values for `CC(C)c1nnc(NC(=O)[C@H]2CC2(C)C)s1` are -7% and 1.35.
As for `COc1cccc(NC(=O)c2c(-c3ccccc3)c(-c3ccccc3)n[nH]c2=O)c1`, the “% Inhibition” value amounted to 7% and the Z score was -1.24.
The corresponding values for `COCCN1C[C@@H](Cc2ccc(C(=O)NC3CC3)cc2)CC1=O` are 12% and -1.37.
The like results for `COCC(NC(C)C(=O)N(C)C)c1ccco1` (stereo unspecified) were, in that order, 0% and 0.01.
In the case of `O=C(CNCc1ccco1)NC1CCCC1`, the “% Inhibition” value is recorded as -6% and the Z score is given as 0.52.
The corresponding values for `CCOC(=O)CN(CCOC)CC(=O)N(CC)c1ccccc1` are -15% and 1.51.
For `COc1ccc(NC(=O)[C@@H]2CCCN2c2ccc(OC)c(OC)c2)cc1OC`, the “% Inhibition” value was -6% and the Z score came out at 0.79.
The like results for `CC(C)c1nc2cc(C(=O)NCCc3noc([C@@H]4CCCO4)n3)ccc2o1` were, in that order, 1% and -0.08.
The corresponding values for `Fc1cccnc1N1CCC[C@H](c2nncn2C2CC2)C1` are -1% and 0.17.
The like results for `CCc1ccccc1NC(=O)Cc1nnc(-c2cnccn2)o1` were, in that order, -6% and 0.63.
Consider `NC(=O)C1CCN(C(=O)N2CCCCC2)CC1`, for which the “% Inhibition” value is -10% and the Z score was determined as 1.8.
The corresponding values for `COc1nccnc1CN[C@H]1C[C@H](c2cccc(C)c2)C1` are 9% and -1.84.
The corresponding values for `Cc1cc(C)n(CC(=O)NCCC(C)C)c(=O)c1-c1nc(-c2ccccc2)no1` are -9% and 1.24.
For `CCOc1cccc(NCc2c(N)ncnc2OC)c1`, the “% Inhibition” value came out at 34% and the Z score is recorded as -4.6.
As to `CN1C(C(=O)N2CCN(c3ccccc3)CC2)=CC(c2ccco2)=NS1(=O)=O`, the “% Inhibition” value is -11% and the Z score was determined as 2.02.
The corresponding values for `COc1ccc(-c2nc3n(n2)C2(CCCCC2)[C@@H]2CCCC[C@@H]2N3C(=O)c2ccco2)cc1` are -29% and 2.51.
Take `CN(Cc1ccc(Cl)cc1)c1nc2c(c(=O)[nH]1)CCNC2`: the “% Inhibition” value is -5% and the Z score is 0.86.
The corresponding values for `COCCCOC1CCN(S(=O)(=O)c2ccc(C#N)nc2)CC1` are -8% and 0.76.
The corresponding values for `c1cncc(CCn2ccnc2-c2c[nH]cn2)c1` are -5% and 0.6.
For `CO[C@H]1COC[C@H]1NC(=O)N1C[C@@H](C)N(CC(F)(F)F)[C@@H](C)C1`, the “% Inhibition” value is -9% and the Z score was found to be 0.92.
As to `COc1ccc(CCNC(=O)CCCO)cc1OC`, the “% Inhibition” value is -9% and the Z score turned out to be 1.5.
The corresponding values for `CCOC(=O)c1cc(OC(=O)Cc2ccc(OC)c(S(=O)(=O)N3CCOCC3)c2)cc(C(=O)OCC)c1` are -6% and 0.64.
The like results for `O=C(N[C@H]1CCNC[C@@H]1O)c1cccc(-c2ccc(F)cc2Cl)c1` were, in that order, -11% and 1.87.
For the compound `COc1ccc(NC(=O)NC(Cc2ccc(F)cc2)Cc2ccc(F)cc2)cc1`, the “% Inhibition” value was 3% and the Z score is listed as -0.43.
